The results in this text go back to PubChem BioAssay AID1508623 (National Center for Advancing Translational Sciences (NCATS), 2021).

The structures appear in SMILES notation. Screen size: about 48,000 compounds; about 450 (0.94%) were called active. Not shown: some 19% with an inconclusive outcome. The call rests on the fitted dose curve; in most records, active means well fitted inhibition curve with a large enough effect; inconclusive means small, poorly fitted or top-dose-only effect; inactive means no such curve, though single readings can be large or run the other way. Some of the results follow.

The nature of the experiment: Primary qHTS for Identification of Small Molecule Inhibitors of Huntingtin Promoter Activity. Further: nearly all actives have a fitted effect of over 50% in size. The following applies: HEK293 HTT promoter firefly luciferase reporter (activity 0% = vehicle and -100% = no light), 24 h; series mostly up to 57.5 µM; activity change, negative = inhibition: at the top concentration. The procedure, abridged: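 Quantitative HTS used concentration series of up to 57.5 uM final on HEK293 luciferase reporter cells, 24 h at 37 degrees C. Readout was Dual-Glo firefly luminescence.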
A general note: In qHTS, concentration-response curves come from the screen itself.
As to `Cc1ccccc1CNC(=O)c1ccc(CS(=O)Cc2ccc(Cl)cc2)o1` (stereo not given), the “activity change, negative = inhibition” value was inactive: -28.2%.

With `CCOc1ccc(N2CC(c3nc4ccccc4n3Cc3cccc(C)c3)CC2=O)cc1` (stereo not given), the “activity change, negative = inhibition” value was inactive: -27.7%.

Regarding `O=[N+]([O-])c1cc(-c2nc(-c3ccccc3)no2)ccc1NCCc1ccccc1`, the “activity change, negative = inhibition” value was inactive: -16.3%.

Turning to `CCn1c(CC2C(=O)N(C)c3ccccc32)nc2ccccc2c1=O` (stereo not given), the “activity change, negative = inhibition” value is inactive: -20.1%.

Take `COc1ccc(Cl)cc1NC(=O)CSc1nc(-c2ccccc2)c2ccccc2n1`: the “activity change, negative = inhibition” value is inactive: -4.6%.

Consider `O=C(Nc1cccc(F)c1)[C@@H](c1ccccc1)N1Cc2ccccc2C1=O`, for which the “activity change, negative = inhibition” value is inactive: -14.4%.

For `CC(C)CC(C(=O)NCCc1ccccc1)N1Cc2ccccc2C1=O` (stereo not given), the “activity change, negative = inhibition” value was inactive: -18.5%.

On to `CCc1ccc(NC(=O)CCCn2nc(C)c3c(C)n(-c4ccccc4)nc3c2=O)cc1`, for which the “activity change, negative = inhibition” value was inactive: 2.11%.

On to `CC(O)C(=O)O` (stereo not given), for which the “activity change, negative = inhibition” value was inactive: 7.39%.

Turning to `CN(C)CCOC(c1ccccc1)c1ccccc1`, the “activity change, negative = inhibition” value was inactive: 8.06%.

Regarding `CCOc1ccc(CNC(=O)C2CCN(Cc3cc4ccccc4n3Cc3ccccc3C)CC2)cc1`, the “activity change, negative = inhibition” value is inactive: 0%.

On to `CC(=O)Nc1ccc2nc(SCCOc3ccccc3)sc2c1`, for which the “activity change, negative = inhibition” value was inactive: 14.4%.

Turning to `C[C@H]1C[C@@H]2[C@@H]([C@@H](O)C[C@@]3(C)[C@H]2CC[C@]3(O)C(=O)CO)[C@@]2(C)C=CC(=O)C=C12`, the “activity change, negative = inhibition” value is inactive: -7.65%.

As for `Cc1ccc(NC(=O)C(=O)NCCCN2CCOCC2)cc1C`, the “activity change, negative = inhibition” value was inactive: 0.318%.

For the compound `Cc1cccc(NC(=O)C2(C)Cc3ccccc3C(=O)O2)c1` (stereo not given), the “activity change, negative = inhibition” value was inactive: 4.9%.

For the compound `Cc1c(CNC2CCCCCC2)c(C(=O)O)c(C)n1Cc1ccc(F)cc1`, the “activity change, negative = inhibition” value is inactive: -10.1%.

With `Cc1cc(C)cc(NC(=O)CCS(=O)(=O)c2ccc3c(c2)oc(=O)n3C)c1`, the “activity change, negative = inhibition” value is inactive: -5.57%.

For the compound `Cc1cccc(-n2ncc3c(N4CCN(CCO)CC4)ncnc32)c1`, the “activity change, negative = inhibition” value was inactive: 42%.

Consider `O=C(Nc1nnc2n1CCS2)c1ccccc1`, for which the “activity change, negative = inhibition” value is inactive: 27.1%.

On to `Cc1ccc(Cl)cc1NC(=O)N1CCc2cc(S(=O)(=O)N3CCC(C)CC3)ccc21`, for which the “activity change, negative = inhibition” value is inactive: -5.53%.

Take `COc1ccccc1CNC(=O)c1ccc(Nc2nc3ccccc3n3nnnc23)cc1`: the “activity change, negative = inhibition” value was inactive: -10.3%.

Consider `CC(C)c1ccc(/C=C(\C#N)c2nc(-c3cc4ccccc4oc3=O)cs2)cc1`, for which the “activity change, negative = inhibition” value is inactive: -3.1%.

For the compound `CCOc1ccccc1NC(=O)C1=C(C)Nc2ncnn2C1c1ccccn1` (stereo not given), the “activity change, negative = inhibition” value is inactive: -7.56%.

For `CCOC(=O)CCn1cnc2onc(-c3ccccc3Cl)c2c1=O`, the “activity change, negative = inhibition” value was inactive: -3.46%.

With `COc1cc(Cl)c(C)cc1NS(=O)(=O)c1c(C)nc2sccn2c1=O`, the “activity change, negative = inhibition” value is inactive: -7.83%.

Regarding `COC(=O)c1ccc(Nc2ncnc3c2cnn3-c2ccccc2)cc1`, the “activity change, negative = inhibition” value is inactive: -9.86%.

On to `O=C(CCCCCCCCC#CI)Oc1ccccc1`, for which the “activity change, negative = inhibition” value was inactive: -2.6%.

Regarding `COc1ccc(NC(=O)CN(c2ccccc2OC)S(C)(=O)=O)c(OC)c1`, the “activity change, negative = inhibition” value is inactive: -1.7%.

Consider `Cc1cc(C)cc(NC(=O)CCCn2nc(C)c3c(C)n(-c4ccccc4)nc3c2=O)c1`, for which the “activity change, negative = inhibition” value was inactive: -3.91%.

Turning to `COc1cc(NC(=O)CCc2c(C)nc3c4c(C)cc(C)nc4nn3c2C)cc(OC)c1`, the “activity change, negative = inhibition” value is inactive: 0%.

For the compound `COc1cc(-c2nnc(SCC(=O)Oc3ccc(C)cc3C)o2)cc(OC)c1OC`, the “activity change, negative = inhibition” value was inactive: 3.83%.

For `Cn1c(=O)cc(OCC(=O)N2CCN(c3ccc(F)cc3)CC2)c2ccccc21`, the “activity change, negative = inhibition” value is inactive: 3.21%.

As for `CCOCN(C(=O)Cn1c(CC(C)C)nc2ccccc21)c1c(C)cccc1CC`, the “activity change, negative = inhibition” value is inactive: -19.2%.

For `CCOc1ccccc1Nc1ncnc2c1c(-c1ccccc1)cn2-c1ccc(OC)cc1`, the “activity change, negative = inhibition” value was inactive: -19.8%.

For `CC(C)c1ccc(NC(=O)C(NS(=O)(=O)c2ccc3c(c2)CCC(=O)N3)c2ccccc2)cc1` (stereo not given), the “activity change, negative = inhibition” value was inactive: -16.8%.

Take `Cc1cc(C)cc(NC(=O)c2ncn(-c3ccccc3)n2)c1`: the “activity change, negative = inhibition” value is inactive: 46%.

Regarding `CCc1ccc(NC(=O)N(Cc2cn(CC)c3ccccc23)C2CCCCC2)cc1`, the “activity change, negative = inhibition” value was inactive: -11.3%.

Turning to `Cc1c(Cl)cccc1NC(=O)C(C)N(c1ccccc1)S(C)(=O)=O` (stereo not given), the “activity change, negative = inhibition” value was inactive: -9.41%.

`O=S(=O)(c1ccccc1)c1nc(-c2ccccc2)oc1N1CCN(c2cccc(Cl)c2)CC1`: the “activity change, negative = inhibition” value was inactive: -21%.

Take `Cc1ccc(-c2cn3cccnc3n2)cc1NC(=O)Cc1ccccc1`: the “activity change, negative = inhibition” value is inactive: 4.31%.

As for `O=C(CSCc1cnn(-c2ccccc2)c1-n1cccc1)NCc1ccccc1Br`, the “activity change, negative = inhibition” value was inactive: -18.3%.

Take `CCc1ccc(NC(=O)COCc2cc(-c3ccc(F)cc3)on2)cc1`: the “activity change, negative = inhibition” value is inactive: 14.4%.

`CCc1ccccc1-n1c2c(cc(-c3nc(-c4ccc(Cl)cc4)cs3)c1=O)C(=O)CC(C)(C)C2`: the “activity change, negative = inhibition” value was inactive: -13.2%.

`O=C(COc1ccc(F)cc1)NC1CC(=O)N(c2ccc3c(c2)OCCO3)C1` (stereo not given): the “activity change, negative = inhibition” value was inactive: -11.5%.

`COc1cccc(NC(=O)C2CCN(c3cc(C)nc4c(-c5ccc(Cl)cc5)c(C)nn34)CC2)c1`: the “activity change, negative = inhibition” value was inactive: -16.2%.

Consider `Cc1ccc(-c2nn3c(=O)cc(CN4CCN(S(=O)(=O)c5ccc(Cl)cc5)CC4)nc3s2)cc1`, for which the “activity change, negative = inhibition” value is inactive: -22.2%.

Regarding `CCOc1ccc(OCC)c(NS(=O)(=O)c2ccc3[nH]c(=O)ccc3c2)c1`, the “activity change, negative = inhibition” value is inactive: -16%.

Turning to `CC(NC(=O)C1=Cc2ccccc2OC1)c1ccccc1` (stereo not given), the “activity change, negative = inhibition” value was inactive: -25.1%.

In the case of `CC(=O)Nc1ccc(NC(=O)Cn2c(=O)ccc3cc(S(=O)(=O)N4CCC(C)CC4)ccc32)cc1`, the “activity change, negative = inhibition” value is inactive: 1.07%.

On to `COc1ccc(C(=O)N2CCN(c3nc4c(C)c(Cl)ccc4s3)CC2)c(OC)c1`, for which the “activity change, negative = inhibition” value is inactive: -5.46%.

In the case of `CCCCNc1nc2c(c(=O)n(Cc3ccccc3)c(=O)n2C)n1C`, the “activity change, negative = inhibition” value was inactive: -4.92%.

As to `COc1ccc(N(C)C(=O)c2cc3c(s2)-c2ccccc2OC3)cc1`, the “activity change, negative = inhibition” value was inactive: -8.41%.

For `Cc1cc(C(=O)Nc2cccc(C)c2C)c2c(C)nn(-c3cccc(F)c3)c2n1`, the “activity change, negative = inhibition” value was inactive: -10.2%.

Regarding `O=C(NCc1ccc(Cl)cc1)c1ccc2c(c1)N(Cc1ccccc1F)C(=O)c1ccccc1S2=O` (stereo not given), the “activity change, negative = inhibition” value is inactive: -17.3%.

In the case of `CCOc1ccccc1-c1nc(C(N)=O)c2c(n1)n(-c1ccc3c(c1)OCO3)c(=O)n2C`, the “activity change, negative = inhibition” value was inactive: -8.99%.

`CC(=O)Nc1ccc(S(=O)(=O)N(Cc2ccccc2)Cc2ccccc2)cc1`: the “activity change, negative = inhibition” value was inactive: -28.8%.

For `CCn1c(=O)cc(SCC(=O)NCc2ccc(C)cc2)c2ccccc21`, the “activity change, negative = inhibition” value was inactive: -6.62%.

With `C=Cc1ccc(Cn2c(=O)n(CC3CCC(C(=O)NC(C)C)CC3)c(=O)c3sccc32)cc1` (stereo not given), the “activity change, negative = inhibition” value was inactive: -8.72%.

`CCCCNC(=O)c1ccc2c(c1)NC(=O)C(CS(=O)(=O)Cc1ccc(F)cc1Cl)N2` (stereo not given): the “activity change, negative = inhibition” value was inactive: -17.2%.

With `COc1cccc(-c2ccc3c(N)c(C(=O)Nc4ccccc4C)sc3n2)c1`, the “activity change, negative = inhibition” value is inactive: -17.7%.

Turning to `CC(C)CCNC(=O)c1ccc2c(c1)nc1n2CCCCC1`, the “activity change, negative = inhibition” value is inactive: -19.9%.

Consider `CCCC(=O)Nc1ccc2nc(SCc3ccc(C)cc3)sc2c1`, for which the “activity change, negative = inhibition” value is inactive: -17%.

In the case of `COc1ccc(C)cc1NC(=O)Cc1c(C(=O)O)c(C)cn1C`, the “activity change, negative = inhibition” value is inactive: -13.7%.

For `Nc1ccc2oc(Cc3ccc(Cl)cc3)nc2c1`, the “activity change, negative = inhibition” value was inactive: -9.85%.

Regarding `COCCNc1ccc(-c2nc(-c3ccccn3)no2)cc1[N+](=O)[O-]`, the “activity change, negative = inhibition” value is inactive: 54.1%.
